Results: the supplement of paper PMC4967469

Columns and labels:
Assay in all cases: Viability of human cancer cell lines after 72 h of drug (GDSC screen)
[1] = compound: COc1cc(C)c(Sc2cnc(NC(=O)c3ccc(CNC(C)C(C)(C)C)cc3)s2)cc1C(=O)N1CCN(C(C)=O)CC1 [BMS-509744]; conditions: top dose 10.24 µM; top dose inferred
Procedure: (§1)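 Human cancer cell lines in 384-well plates, medium with 10% serum, drug for 72 h over a 256-fold dose range (nine 2-fold or five 4-fold steps up to the top dose). Adherent lines were fixed and stained with the nucleic acid dye Syto60, suspension lines read with resazurin; signal relative to control wells, capped at 0 and 100%. One two-parameter sigmoid per drug and line, fitted in a mixed model over all curves with the slope shared within a line.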

[2] = compound: Cn1cncc1[C@@](N)(c1ccc(Cl)cc1)c1ccc2c(c1)c(-c1cccc(Cl)c1)cc(=O)n2C [Tipifarnib]; conditions: top dose 16 µM; top dose inferred
Procedure: as §1

[3] = compound: CCN1CCN(Cc2ccc(NC(=O)c3ccc(C)c(Oc4ccnc5[nH]ccc45)c3)cc2C(F)(F)F)CC1 [NG-25]; conditions: top dose 10.24 µM; top dose inferred
Procedure: as §1

[4] = compound: CCc1cc(Nc2nccc(-c3c(-c4ccc(OC)c(C(=O)Nc5c(F)cccc5F)c4)nc4ccccn34)n2)c(OC)cc1N1CCC(N2CCN(S(C)(=O)=O)CC2)CC1 [GSK-1904529A]; conditions: top dose 1.024 µM; top dose inferred
Procedure: as §1

[5] = compound: COc1ccccc1S(=O)(=O)Nc1ccc2c(c1)CN(C)C(=O)N2 [PFI-1]; conditions: top dose 10 µM; top dose inferred
Procedure: as §1

Cell Line | AUC [1] | IC50 [1] [µM] | AUC [2] | IC50 [2] [µM] | AUC [3] | IC50 [3] [µM] | AUC [4] | IC50 [4] [µM] | AUC [5] | IC50 [5] [µM]
SCC-3 (B-cell lymphoma, suspension) | 0.989 | > 10.2 | 0.997 | > 16 | 0.914 | 7.39 | 0.997 | > 1.02 |  | 
HEL (acute myeloid leukaemia, semi-adherent) | 0.909 | 10.2 | 0.365 | 0.454 | 0.831 | 5.02 | 0.992 | > 1.02 |  | 
SUP-B15 (lymphoblastic leukaemia, suspension) | 0.914 | > 10.2 | 0.521 | 1.14 | 0.181 | 0.0744 | 0.985 | > 1.02 |  | 
SHP-77 (small cell lung carcinoma, semi-adherent) | 0.975 | > 10.2 | 0.823 | 8.15 | 0.884 | 9.02 |  |  | 0.986 | > 10
KMS-12-BM (myeloma, suspension) | 0.842 | 5.44 | 0.778 | 5.36 | 0.872 | 7 | 0.991 | > 1.02 |  | 
D-336MG (glioma, adherent) | 0.768 | 4.93 |  |  | 0.847 | > 10.2 |  |  | 0.832 | 9.06
RL95-2 (endometrium, adherent) | 0.803 | 5.01 |  |  | 0.867 | 9.05 |  |  | 0.949 | > 10
IST-SL2 (small cell lung carcinoma, suspension) | 0.901 | > 10.2 | 0.78 | 6.51 |  |  | 0.988 | > 1.02 | 0.975 | > 10
H-EMC-SS (chondrosarcoma, adherent) | 0.974 | > 10.2 | 0.908 | > 16 | 0.666 | 2.14 | 0.98 | > 1.02 |  | 
MHH-NB-11 (neuroblastoma, adherent) | 0.967 | > 10.2 | 0.86 | 15.6 | 0.77 | 4.29 | 0.985 | > 1.02 |  | 
IM-9 (myeloma, suspension) | 0.924 | > 10.2 | 0.848 | 9.52 |  |  | 0.979 | > 1.02 | 0.924 | > 10
KP-N-RT-BM-1 (neuroblastoma, semi-adherent) | 0.814 | 7.82 |  |  |  |  |  |  |  | 
SU-DHL-1 (anaplastic large cell lymphoma, suspension) | 0.978 | > 10.2 | 0.844 | 7.04 | 0.916 | 7.41 | 0.997 | > 1.02 |  | 
LB647-SCLC (small cell lung carcinoma, semi-adherent) | 0.921 | > 10.2 | 0.947 | > 16 |  |  | 0.985 | > 1.02 | 0.933 | > 10
NCI-H2171 (small cell lung carcinoma, suspension) | 0.981 | > 10.2 | 0.858 | 10.5 | 0.914 | > 10.2 | 0.991 | > 1.02 |  | 
EHEB (lymphoid neoplasm, suspension) | 0.96 | > 10.2 | 0.765 | 8.59 |  |  | 0.978 | > 1.02 | 0.968 | > 10
NCI-H128 (small cell lung carcinoma, suspension) | 0.881 | > 10.2 |  |  |  |  |  |  |  | 
BC-3 (B-cell lymphoma, suspension) | 0.952 | > 10.2 | 0.678 | 2.95 | 0.854 | 6.79 | 0.984 | > 1.02 |  | 
TE-441-T (rhabdomyosarcoma, adherent) | 0.975 | > 10.2 | 0.967 | > 16 | 0.829 | 6.03 | 0.989 | > 1.02 |  | 
HCC1599 (breast, suspension) | 0.948 | > 10.2 | 0.789 | 8.21 | 0.868 | > 10.2 | 0.982 | > 1.02 |  | 
KP-N-YS (neuroblastoma, adherent) | 0.933 | > 10.2 | 0.791 | 8.41 | 0.729 | 3.19 | 0.977 | > 1.02 |  | 
KARPAS-231 (B-cell leukaemia, suspension) | 0.886 | 6.83 | 0.437 | 0.7 |  |  | 0.991 | > 1.02 | 0.922 | 9.38
RCC10RGB (kidney, adherent) | 0.831 | > 10.2 | 0.755 | 11.6 | 0.768 | 8.59 | 0.948 | > 1.02 |  | 
NCI-H64 (small cell lung carcinoma, suspension) | 0.996 | > 10.2 | 0.863 | 8.4 | 0.87 | 5.63 | 0.988 | > 1.02 |  | 
NCI-H510A (small cell lung carcinoma, semi-adherent) | 0.944 | > 10.2 | 0.889 | 15.6 | 0.852 | 6.95 | 0.989 | > 1.02 |  | 
JSC-1 (B-cell lymphoma, suspension) | 0.9 | > 10.2 | 0.32 | 0.315 | 0.801 | 4.94 | 0.979 | > 1.02 |  | 
SKM-1 (haematopoietic neoplasm, suspension) | 0.955 | > 10.2 |  |  |  |  |  |  | 0.743 | 3.37
MY-M12 (leukaemia, suspension) | 0.893 | > 10.2 | 0.622 | 2.27 | 0.093 | < 0.04 | 0.975 | > 1.02 |  | 
MOLT-13 (T-cell lymphoblastic leukaemia, suspension) | 0.941 | > 10.2 |  |  | 0.88 | 8.37 |  |  | 0.657 | 1.61
GCIY (stomach, adherent) | 0.896 | > 10.2 | 0.771 | 6.91 | 0.857 | 10.1 | 0.97 | > 1.02 |  | 

Lines with a small IC50 respond at low doses; a fit beyond the top or the lowest dose is shown as a bound at that dose. AUC, from the same fit, is the share of area under the viability curve across the 256-fold dose range; it is 1 without any effect and falls as sensitivity rises. An inferred top dose was derived from the fitted curves, not read from the paper.
